Experimental data from PubChem BioAssay AID1346428 (National Center for Advancing Translational Sciences (NCATS), 2018).
The whole screen tested about 48,000 compounds, of which about 1,200 (2.5%) were called active. Inconclusive results (about 2%) are left out.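 The calls were made as follows: active = activation of at least 60% and not above a set upper limit (about 1 call in 100 departs from these limits); inconclusive = activation of 40% to 60%, or above that upper limit; inactive = activation under 40%.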 This is one part of the list.

What follows are molecules tested against Probable G-protein coupled receptor 32 (Homo sapiens) (UniProt O75388) (assay: qHTS for Agonists of Human Resolvin D1 Receptor DRV1). Settings: CHO-K1 GPR32 beta-arrestin PathHunter luminescence, 90 min; at 76.9 µM; stronger effect = higher value; zero percent set by DMSO-only wells.
Procedure, shortened: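 PathHunter beta-arrestin recruitment in CHO-K1 cells stably expressing ProLink-tagged GPR32. Cells were exposed to compound for 90 min at 37 C, then chemiluminescence was read after 1 h detection at ambient temperature; DMSO served as basal control.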
Also: 0% is about no effect.

Sequence of UniProt O75388 (O75388 whole entry, looked up): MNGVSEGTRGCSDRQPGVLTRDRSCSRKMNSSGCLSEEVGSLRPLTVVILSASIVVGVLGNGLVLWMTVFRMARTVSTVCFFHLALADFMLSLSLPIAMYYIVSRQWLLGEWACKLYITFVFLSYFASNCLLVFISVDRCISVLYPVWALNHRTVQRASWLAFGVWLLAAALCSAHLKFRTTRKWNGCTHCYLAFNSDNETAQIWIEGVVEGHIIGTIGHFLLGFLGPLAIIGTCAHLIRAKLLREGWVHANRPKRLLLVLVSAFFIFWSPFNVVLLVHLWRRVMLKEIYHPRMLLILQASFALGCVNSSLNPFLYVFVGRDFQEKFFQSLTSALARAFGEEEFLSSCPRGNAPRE

activation, inactive:
CCCOc1ccc(C2C(=O)N(C3CCC(C)CC3)CC(=O)N2CCc2ccccc2)cc1OC (centres undefined) -9.35%, O=C(Nc1ccccc1C(F)(F)F)c1ccc(F)c(S(=O)(=O)N2CCc3ccccc3C2)c1 -23.9%, CCN(CC)C(=O)C1=C(C)Nc2nc3ccccc3n2C1c1cccc(OC)c1 (centres undefined) -1.8%, CCOC(=O)N[C@H](Cc1c[nH]c2ccccc12)C(=O)Nc1cccc(Cl)c1 -18.5%, COc1ccc(OC)c(NC(=O)c2nc(S(=O)(=O)Cc3ccc(F)cc3)ncc2Cl)c1 -27.2%, CC(C)Oc1ccc(CNC(=O)C2=Cc3ccccc3OC2)cc1 0.191%, COc1ccc(C(=O)c2cn(CC(=O)Nc3cc(C)ccc3C)c3nc(C)ccc3c2=O)cc1 7.32%, CCOCCCN(Cc1ccco1)C(=O)c1cc2c(s1)-c1c(C)cccc1OC2 -33%, CC(C)n1nc(-c2cc3cc(O)ccc3[nH]2)c2c(N)ncnc21 0.456%, CCc1ccc(C2CC(=O)Nc3c2c(=O)n(C)c2ncnn32)cc1 (centres undefined) 5.61%, COc1ccc(N2CCN(C(CNC(=O)c3ccc(OC)c(OC)c3)c3cccnc3)CC2)cc1 (centres undefined) 0.864%, NC(=O)C1CCN(c2csc3ccc(F)cc3c2=O)CC1 -2.83%, CCn1c(CN2CCN(C)CC2)nc2cc(NC(=O)c3ccc([N+](=O)[O-])cc3)ccc21 4.24%, CCCCSc1nnc2c(n1)OC(c1ccc(Br)s1)Nc1ccccc1-2 (centres undefined) 29%, Cc1ccc(NC(=O)CN(Cc2ccccc2)S(=O)(=O)c2ccc3nc(C)sc3c2)c(C)c1 -14.3%, Cc1ccc(-c2nc(CSc3nnc(C)n4c3cc3occc34)c(C)o2)cc1 -3.92%, CCCCOC(=O)c1ccc(-n2nnc3c(sc4nc(C)cc(C)c43)c2=O)cc1 -5.49%, COc1ccc(CNC(=O)c2c(O)nc3c(C)cccn3c2=O)cc1 -0.362%, CN(C)c1ccc(CNC(=O)CCCN2C(=O)c3cccnc3Oc3ccc(Cl)cc32)cc1 -12.1%, CC(C)Cn1cc(NC(=O)N2CCN(c3cccc(C(F)(F)F)c3)CC2)c2ccccc2c1=O -33.9%, Cc1cccc2nc(-c3ccccn3)c(Nc3ccccc3)n12 -93.6%, CCOC(=O)C1=C(C)NC(C)=C(C(=O)OCC)C1c1c(F)c(F)c(F)c(F)c1F -22.1%, CCOc1ccc(-c2nc(-c3ccccc3)c(-c3ccccc3)[nH]2)cc1OCC -6.27%, COc1cc2nc(Nc3cccc(F)c3)nc(N)c2cc1OC 20.6%, Cc1cc(N2CCC(C)CC2)nc2ccc(NC(=O)Cc3ccccc3Br)cc12 11.2%, O=S(=O)(NCCc1nnc2ccc(SCc3ccccc3Cl)nn12)c1ccccc1 -27%, COc1ccc2cc1Oc1cc3c(cc1OC)CC[N+](C)(C)[C@H]3Cc1ccc(cc1)Oc1c(OC)c(OC)cc3c1[C@@H](C2)[N+](C)(C)CC3 22%, Cc1cc2nc(-c3cccc(NC(=O)c4cccc5ccccc45)c3)oc2cc1C -17.7%, O=C(/C=C/c1ccccc1)Nc1cc(-c2nc3cc(Cl)ccc3o2)ccc1Cl -6.75%, Cc1cccc(OCC(=O)Nc2cccc(OCc3cc(=O)n4cccc(C)c4n3)c2)c1 -14.6%, CC1CCCN(C(=O)c2cc3ccc4cccnc4c3[nH]2)C1 (centres undefined) -13.6%, CCOc1ccc(N2CC(NC(=O)c3ccco3)CC2=O)cc1 (centres undefined) -2.54%, COc1cccc(-n2ccnc2SCC(=O)Nc2c(C)cc(C)cc2C)c1 -25.9%, Cc1cc(C)c(NC(=O)Cn2c(=O)c3cccn3c3ccccc32)c(C)c1 -9.96%, CCCCNC(=O)c1ccc2c(c1)N(Cc1ccc(F)cc1)C(=O)c1ccccc1S2=O (centres undefined) -11.8%, CCSc1ncc(Cl)c(C(=O)N2CCN(c3ccccc3OC)CC2)n1 -3.68%, CCOCCCNC(=O)c1ccc(-n2c(-c3ccccc3)cc3c2CCCC3)cc1 -22.9%, Cc1ccc(NC(=O)/C=C\C(=O)N(c2ccc(C(C)C)cc2)C(C(=O)NCc2ccco2)c2ccc(Cl)cc2)cc1 (centres undefined) -21.5%, Cc1cccc(C(=O)OCc2cc(=O)n3ccsc3n2)c1 8.3%, COc1ccc(CNC(=O)C2CCN(S(=O)(=O)c3c(C)noc3/C=C/c3ccccc3F)CC2)cc1 -12.1%, COc1ccc(Cn2ccc3nc(C)c(C(=O)Nc4ccc(OC)cc4)cc3c2=O)cc1 -17.7%, Cc1ccc(-n2c(C)cc(C(=O)C(=O)Nc3ccccc3)c2C)c(C)c1 -5.17%, O=c1cc(-c2ccc(O)cc2)oc2cc(O)cc(O)c12 -20.5%, COc1ccc(CCNC(=O)CCn2c(=O)c3ccccc3n(Cc3ccccc3F)c2=O)cc1OC 7.45%, CC(C(=O)NCCSCc1cccc(Cl)c1)N(c1ccccc1)S(C)(=O)=O (centres undefined) 28.4%, CC(=O)Nc1nc2n(n1)C(c1ccc(F)cc1)C=C(c1ccc(Cl)cc1)N2 (centres undefined) -37.2%, CN(C(=O)CCc1nc(-c2ccccc2F)no1)c1ccc(Cl)cc1 -23.8%, O=S(=O)(c1ccc(OC(F)(F)F)cc1)N1CCC(c2nnnn2-c2ccc(F)cc2)CC1 -10.6%, Cc1ccc(NC(=O)c2nc(S(C)(=O)=O)ncc2N(Cc2ccc(C(C)(C)C)cc2)Cc2ccco2)cc1C -13.7%, CCc1cccc(NC(=O)C2CCCN(c3ncnc4onc(-c5ccc(F)cc5)c34)C2)c1 (centres undefined) -7.17%, COc1cc(C(=O)NCC(c2ccc3c(c2)OCO3)N2CCOCC2)cc(OC)c1OC (centres undefined) -14.8%, CCOc1ccc(-c2cc3c(=O)n(CC(=O)NCc4ccc(C)cc4)ccn3n2)cc1 11.9%, COc1ccc(-c2noc(CSCC(=O)Nc3cc(OC)c(OC)c(OC)c3)n2)cc1OC -7.79%, CCn1cc(C(=O)OCC(=O)Nc2ccc(C)c(Cl)c2)c(=O)c2ccc(C)nc21 2.14%, CCN1CCSc2ccc(C(=O)NCc3ccc(OC(C)C)cc3)cc21 -17.5%, CCOC(=O)Cc1ccc(NC(=O)NCc2c(-n3cccc3)sc3c2CCCC3)cc1 7.53%, COc1ccc(N(Cc2cc3ccccc3[nH]c2=O)C(=O)c2cccc(Cl)c2)cc1 -26.5%, CCn1ccc(NS(=O)(=O)c2ccc(N)cc2)nc1=O 40.1%, Cc1ccc(NC(=O)c2c(C)cc(C)nc2SCC(=O)Nc2ccc(Br)cc2)cc1 -20.6%, CC(=O)N1c2ccccc2CC1C(=O)N1CCN(c2ccccc2)CC1 (centres undefined) -11.3%, CCc1nc2ccc(C(=O)NCCc3ccccc3OC)cc2nc1CC -20%, O=C(CS(=O)(=O)c1cccc2nsnc12)Nc1ccccc1Cl -1.24%, CCCCN1CC(c2nc3ccccc3n2CCCCOc2cc(C)ccc2C)CC1=O (centres undefined) 14%, Cc1ccc(-c2csc(-c3nc(-c4ccc(Br)s4)cs3)n2)cc1 9.4%, CCN(CC)CCNC(=O)Cn1ncc2c3ccccc3n(Cc3ccc(Cl)cc3)c2c1=O -13.5%, Cc1ccc(NC(=O)CSc2nc(=O)n(Cc3cccnc3)c3c2CCC3)cc1F -1.12%, COc1ccc(NC(=O)Cn2nnc(C(=O)NCc3cccs3)c2N)cc1 -1.25%, COc1ccc(Cc2nc3ccc(C(=O)NCc4ccccc4C)cc3o2)cc1 -27.9%, COc1ccc(NC(=O)CN2C(=O)CC(c3ccc(C)c(C)c3)=Nc3ccccc32)cc1OC -11.3%, CCC(CC)C(=O)Nc1ccc2nc(SCC(=O)N3CCCC3)sc2c1 -2.74%, CCc1cccc(C)c1NC(=O)c1cc(S(=O)(=O)N(Cc2ccc(C(=O)OC)cc2)Cc2ccc(OC)c(OC)c2)ccc1F -20.3%, Cc1ccccc1Oc1nc2ccccn2c(=O)c1/C=C(\C#N)c1nc2ccccc2[nH]1 -8.72%, Cc1ccc2nc(-c3cccs3)c(Nc3c(C)cccc3C)n2c1 11.4%, CN(C)c1ccc(/C=C/c2nc(-c3ccccc3O)n(-c3ccccc3)n2)cc1 -7.6%, CC(C)CCNC(=O)CN1C(=O)CSc2ccc(S(=O)(=O)N3CCC(C)CC3)cc21 -11.6%, CCOC(=O)C1CCCN(c2nc3c(S(=O)(=O)c4ccc(CC)cc4)nnn3c3ccsc23)C1 (centres undefined) -23.3%, Cc1ccc2c(c1)c1c(c(=O)n(-c3cccc(Cl)c3)c(=O)n1CC(=O)NCC1CCCO1)n2C (centres undefined) 0.404%, Cc1c(C(=O)NCc2ccc(F)cc2)oc2ccc(S(=O)(=O)N3CCCCC3)cc12 18.5%, Cn1c(=O)[nH]c(=O)c2c1nc(N1CCOCC1)n2Cc1ccccc1 -21.6%, Cc1ccccc1OCC(=O)Nc1ccc(-c2nc3ccccc3o2)cc1 -3.73%, CCOC(=O)Cc1ccc(NC(=O)Nc2c[nH]c(=O)[nH]c2=O)cc1 38.7%, CCc1cccc(NC(=O)CCc2nc3cccnc3n2Cc2ccc(OC)cc2)c1 12.6%

activation, active:
CCCC(O)c1nc2ccccc2n1CCCOc1ccc(Cl)cc1 (centres undefined) 68.1%, COc1ccc(NC(=O)[C@H]2O[C@@H]3OC(C)(C)O[C@@H]3[C@H]3OC(C)(C)O[C@H]32)c(OC)c1 97%
